# Measured values from PubChem BioAssay (NCATS).
# Values joined by “and” are separate entries in the source; they are usually repeats but may differ in a detail not shown here. Equal values may be shown once. Inconclusive results, whose numbers are uncertain, are shown with a selection of clear calls. For some assays here: Where the call is inconclusive, the potency comes from a doubtful curve fit. Active and inactive are the calls of the source. Unless noted, calls come from the whole dose curve; as a rule, active = well fitted curve in the direction sought with a large enough effect; inconclusive = small, poorly fitted or top-dose-only effect, or another doubt; inactive = no such curve, though single readings can be large; an effect the other way counts as inactive or inconclusive.
# What was measured:
# [1] = system: Zika virus NS2B-NS3 protease; test: Primary screen GU AMC qHTS for Zika virus inhibitors (AID 1347154); note: nearly all actives have a fitted effect of over 70% in size; note: potency is the fitted concentration of half-maximal effect;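 for activity change, negative = inhibition: 0% = no-inhibitor control and -100% = no-enzyme control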
# Method in brief: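 Unlinked Zika NS2B hydrophilic domain/NS3 protease domain noncovalent complex (25 nM final) in 10 mM Tris-HCl pH 8.0, 0.01% Tween 20, with AMC peptide substrate. Fluorescence (ex 340, em 450 nm) change over 15 min, room temperature; percent inhibition fitted to 4-parameter Hill equation.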
# [2] = Primary qHTS for small molecule stabilizers of the endoplasmic reticulum resident proteome: Secreted ER Calcium Modulated Protein (SERCaMP) assay (AID 1508630); details: SH-SY5Y GLuc-SERCaMP (Gaussia luciferase released on ER calcium loss) secretion, thapsigargin, luminescence; activity change, negative = inhibition: at 38.4 µM (top of the series) unless noted; note: potency is the fitted concentration of half-maximal effect
# Method in brief: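 The SH-SY5Y reporter protocol was run at 3 concentrations up to 38.3 uM (primary) or 11 concentrations (follow-up): 16 h compound, 100 nM thapsigargin for 4 h, then extracellular luciferase luminescence.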
# [3] = target: Rap guanine nucleotide exchange factor 3 (Homo sapiens) (UniProt O95398); test: Confirmatory qHTS for antagonist of cAMP-regulated guanine nucleotide exchange factor 3 (EPAC1) (AID 1645880); details: EPAC1 Rap1B-BODIPY-GDP exchange, fluorescence; activity, negative = inhibition: at 115 µM (top of the series); note: potency is the fitted concentration of half-maximal effect; nearly all actives have a fitted effect of over 55% in size
# Sequence of UniProt O95398 (O95398 whole entry, looked up): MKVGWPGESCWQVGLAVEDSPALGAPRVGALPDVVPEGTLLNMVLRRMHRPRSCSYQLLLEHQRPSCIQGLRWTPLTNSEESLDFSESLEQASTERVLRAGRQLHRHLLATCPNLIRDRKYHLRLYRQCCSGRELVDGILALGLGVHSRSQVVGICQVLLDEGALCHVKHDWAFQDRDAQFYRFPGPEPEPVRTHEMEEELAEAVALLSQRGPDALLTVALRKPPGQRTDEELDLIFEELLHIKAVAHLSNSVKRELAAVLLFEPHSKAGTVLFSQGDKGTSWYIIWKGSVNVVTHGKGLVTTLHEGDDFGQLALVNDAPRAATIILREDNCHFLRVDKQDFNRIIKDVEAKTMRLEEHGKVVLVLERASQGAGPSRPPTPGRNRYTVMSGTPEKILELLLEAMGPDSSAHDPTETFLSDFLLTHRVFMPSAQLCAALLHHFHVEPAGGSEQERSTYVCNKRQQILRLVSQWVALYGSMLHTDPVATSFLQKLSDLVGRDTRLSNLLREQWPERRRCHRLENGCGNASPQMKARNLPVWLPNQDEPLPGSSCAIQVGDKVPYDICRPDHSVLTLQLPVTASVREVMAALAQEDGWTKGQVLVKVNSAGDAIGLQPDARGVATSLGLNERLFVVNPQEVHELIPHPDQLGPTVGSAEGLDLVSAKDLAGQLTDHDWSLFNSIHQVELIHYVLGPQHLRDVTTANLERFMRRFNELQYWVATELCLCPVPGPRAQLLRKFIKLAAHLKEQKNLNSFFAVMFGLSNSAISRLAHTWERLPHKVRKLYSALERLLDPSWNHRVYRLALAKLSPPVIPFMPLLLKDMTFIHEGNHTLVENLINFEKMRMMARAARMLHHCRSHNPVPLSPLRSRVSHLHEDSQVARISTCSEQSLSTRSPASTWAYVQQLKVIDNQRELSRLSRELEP
# Method in brief: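 Released BODIPY-GDP fluoresces less than Rap1-bound BODIPY-GDP; the signal is followed at 480/540 nm at 5-min intervals over 30 min, after 5 min at room temperature. Reactions contain 100 nM EPAC1, 250 nM RAP1B-BODIPY-GDP and 50 uM GDP; results are normalized to ATA and DMSO.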
# [4] = target: Rap guanine nucleotide exchange factor 4 (Homo sapiens) (UniProt Q8WZA2); test: Confirmatory qHTS for agonist of cAMP-regulated guanine nucleotide exchange factor 4 (EPAC2) (AID 1645884); details: EPAC2 GEF activity, Rap1B-BODIPY-GDP fluorescence; activation: at 154 µM (top of the series), percent relative to cAMP agonist control;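 note: nucleotide exchange releases bodipy-GDP from Rap1 and this lowers its fluorescence; % is set by controls: 0 for no effect and ±100 for the full control effect; nearly all actives have a fitted effect of over 65% in size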
# Sequence of UniProt Q8WZA2 (Q8WZA2 whole entry, looked up): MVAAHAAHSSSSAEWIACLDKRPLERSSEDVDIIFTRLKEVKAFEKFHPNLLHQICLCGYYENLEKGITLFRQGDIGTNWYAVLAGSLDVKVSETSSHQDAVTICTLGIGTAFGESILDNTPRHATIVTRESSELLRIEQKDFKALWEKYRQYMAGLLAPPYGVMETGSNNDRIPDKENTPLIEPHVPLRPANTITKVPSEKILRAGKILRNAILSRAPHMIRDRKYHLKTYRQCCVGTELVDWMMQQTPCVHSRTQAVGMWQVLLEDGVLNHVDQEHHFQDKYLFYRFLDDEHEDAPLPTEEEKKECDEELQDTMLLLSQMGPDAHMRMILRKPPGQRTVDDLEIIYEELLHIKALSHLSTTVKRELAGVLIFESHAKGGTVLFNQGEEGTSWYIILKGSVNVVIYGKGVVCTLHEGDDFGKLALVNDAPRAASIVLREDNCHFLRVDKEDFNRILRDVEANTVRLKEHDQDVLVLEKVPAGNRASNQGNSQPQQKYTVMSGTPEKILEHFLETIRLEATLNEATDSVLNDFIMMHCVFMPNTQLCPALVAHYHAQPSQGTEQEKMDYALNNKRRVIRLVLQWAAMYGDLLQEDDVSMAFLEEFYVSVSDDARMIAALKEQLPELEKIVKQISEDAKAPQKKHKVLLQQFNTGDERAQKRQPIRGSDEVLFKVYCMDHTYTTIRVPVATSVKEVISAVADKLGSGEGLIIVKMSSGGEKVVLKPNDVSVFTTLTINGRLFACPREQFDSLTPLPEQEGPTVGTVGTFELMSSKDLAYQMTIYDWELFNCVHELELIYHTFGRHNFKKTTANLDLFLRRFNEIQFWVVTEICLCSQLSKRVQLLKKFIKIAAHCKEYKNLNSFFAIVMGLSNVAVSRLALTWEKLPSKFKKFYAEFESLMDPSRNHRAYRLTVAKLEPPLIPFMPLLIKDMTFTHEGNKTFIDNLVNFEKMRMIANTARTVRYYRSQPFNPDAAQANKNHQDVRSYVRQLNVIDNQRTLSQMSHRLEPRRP
# [5] = target: Rap guanine nucleotide exchange factor 4 (Homo sapiens) (UniProt Q8WZA2); test: Confirmatory qHTS for antagonist of cAMP-regulated guanine nucleotide exchange factor 4 (EPAC2) (AID 1645885); details: activity change, negative = inhibition: at 12.7 µM (top of the series) unless noted; note: potency is the fitted concentration of half-maximal effect; nearly all actives have a fitted effect of over 25% in size
# [6] = target: 3',5'-cyclic-AMP phosphodiesterase 4B (Homo sapiens) (UniProt Q07343); test: qHTS Assay for Inhibitors of PDE-IV (AID 607; active = well fitted activation curve with a large enough effect in the main read-out, with a control signal flat, not every such curve was filed as active; inconclusive = small, poorly fitted or top-dose-only effect, or effect the other way, or a change in a side signal; note: potency is the fitted concentration of half-maximal effect; for activation (PDE inhibition): % of control where 0% means no effect); details: HEK293 ACTOne CNG channel cells, membrane potential fluorescence; activation (PDE inhibition): at 22.9 µM (top of the series)
# Sequence of UniProt Q07343 (Q07343 whole entry, looked up): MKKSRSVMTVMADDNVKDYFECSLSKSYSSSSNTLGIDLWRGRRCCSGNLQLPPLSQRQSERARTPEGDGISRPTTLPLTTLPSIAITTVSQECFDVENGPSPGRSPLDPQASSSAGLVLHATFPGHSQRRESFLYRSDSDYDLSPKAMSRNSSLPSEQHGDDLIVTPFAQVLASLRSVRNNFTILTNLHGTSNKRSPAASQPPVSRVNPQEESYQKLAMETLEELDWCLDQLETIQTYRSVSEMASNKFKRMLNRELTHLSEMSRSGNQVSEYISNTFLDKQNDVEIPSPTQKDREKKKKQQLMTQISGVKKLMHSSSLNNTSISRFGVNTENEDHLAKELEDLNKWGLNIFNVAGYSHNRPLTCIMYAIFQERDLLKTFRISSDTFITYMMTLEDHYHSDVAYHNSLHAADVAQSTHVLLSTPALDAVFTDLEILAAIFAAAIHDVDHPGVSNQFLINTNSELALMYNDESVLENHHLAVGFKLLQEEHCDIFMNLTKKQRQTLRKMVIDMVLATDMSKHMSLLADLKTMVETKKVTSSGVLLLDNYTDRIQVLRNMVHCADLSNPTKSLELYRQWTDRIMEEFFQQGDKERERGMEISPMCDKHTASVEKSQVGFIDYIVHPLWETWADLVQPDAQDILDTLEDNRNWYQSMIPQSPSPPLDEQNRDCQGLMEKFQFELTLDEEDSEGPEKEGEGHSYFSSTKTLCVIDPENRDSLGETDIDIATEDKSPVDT
# Method in brief: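 Live HEK293 cells with a modified cyclic nucleotide-gated (CNG) channel report intracellular cAMP via membrane-potential dye fluorescence (ex 535/em 590 nm). Endogenous PDE-IV was targeted. Compounds were tested at up to 22.9 uM final; RO 20-1724 100 uM served as control.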
# [7] = target: Glucocorticoid receptor (Homo sapiens) (UniProt P04150); test: GR-EFC Redistribution (AID 451; calls by dose curve; note: potency is the fitted concentration of half-maximal effect); details: CHO-K1 GR-EFC translocation, beta-gal luminescence, 2 h
# Sequence of UniProt P04150 (P04150 whole entry, looked up, the tested form may be a part): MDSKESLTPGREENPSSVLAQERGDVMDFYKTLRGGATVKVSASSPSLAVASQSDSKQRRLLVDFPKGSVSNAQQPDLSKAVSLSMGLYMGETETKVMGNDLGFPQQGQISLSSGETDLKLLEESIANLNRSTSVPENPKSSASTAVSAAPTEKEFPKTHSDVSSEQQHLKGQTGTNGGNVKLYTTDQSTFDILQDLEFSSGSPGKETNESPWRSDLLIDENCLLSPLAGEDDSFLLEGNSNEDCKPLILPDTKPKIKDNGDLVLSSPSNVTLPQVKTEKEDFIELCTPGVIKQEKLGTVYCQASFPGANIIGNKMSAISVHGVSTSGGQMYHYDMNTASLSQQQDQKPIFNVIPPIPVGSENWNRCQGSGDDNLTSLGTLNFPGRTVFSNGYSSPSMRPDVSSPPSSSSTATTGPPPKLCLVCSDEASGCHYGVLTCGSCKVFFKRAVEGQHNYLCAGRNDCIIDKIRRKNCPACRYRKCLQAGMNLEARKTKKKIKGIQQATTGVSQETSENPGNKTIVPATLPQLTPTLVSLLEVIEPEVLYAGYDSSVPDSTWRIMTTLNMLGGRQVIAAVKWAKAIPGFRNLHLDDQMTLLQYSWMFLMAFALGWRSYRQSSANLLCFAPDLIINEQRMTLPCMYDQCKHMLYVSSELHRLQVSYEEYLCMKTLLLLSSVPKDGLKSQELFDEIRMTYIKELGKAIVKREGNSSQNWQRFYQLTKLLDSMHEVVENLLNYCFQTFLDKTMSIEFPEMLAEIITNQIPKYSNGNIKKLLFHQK
# Method in brief: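 CHO-K1 cells stably expressing nuclear-localized β-gal enzyme acceptor and GR fused C-terminally to the enzyme donor fragment; ligand-driven nuclear translocation restores β-gal by complementation. Compounds titrated up to 46 uM final, 2 h at 37 °C; luminescence read.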
# [8] = target: Cytochrome P450 1A2 (Homo sapiens) (UniProt P05177); test: p450-cyp1a2 (AID 410; calls by dose curve; note: potency is the fitted concentration of half-maximal effect)
# Sequence of UniProt P05177 (P05177 whole entry, looked up): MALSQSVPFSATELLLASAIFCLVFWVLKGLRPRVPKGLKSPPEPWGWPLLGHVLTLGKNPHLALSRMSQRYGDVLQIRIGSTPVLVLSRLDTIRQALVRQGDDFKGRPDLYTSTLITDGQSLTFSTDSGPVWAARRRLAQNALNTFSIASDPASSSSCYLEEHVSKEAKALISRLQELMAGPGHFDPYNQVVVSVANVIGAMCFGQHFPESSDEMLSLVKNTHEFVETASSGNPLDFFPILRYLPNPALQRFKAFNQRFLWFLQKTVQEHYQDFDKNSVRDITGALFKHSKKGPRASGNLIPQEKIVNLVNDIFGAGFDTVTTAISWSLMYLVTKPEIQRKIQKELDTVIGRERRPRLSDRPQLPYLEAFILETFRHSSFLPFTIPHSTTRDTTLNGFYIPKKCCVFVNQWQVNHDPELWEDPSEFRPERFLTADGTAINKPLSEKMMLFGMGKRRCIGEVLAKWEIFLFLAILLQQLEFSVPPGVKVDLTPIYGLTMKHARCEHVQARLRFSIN
# Method in brief: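 Read-out is luminescence from luciferin produced by CYP1A2 demethylation of Luciferin-ME (100uM, at Km). Detection reagent stopped the 60 min NADPH-dependent reaction; signals were normalized to 57 uM furafylline.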
# [9] = qHTS Assay for Identification of Small Molecule Antagonists for NFkB Signaling Pathway (AID 895; active = well fitted inhibition curve with a large enough effect in the signal ratio, with a control signal flat, not every such curve was filed as active; inconclusive = small, poorly fitted or top-dose-only effect, or effect the other way, or a change in a side signal; the % refers to the signal ratio; note: % is set by controls: 0 for no effect and ±100 for the full control effect); details: NFkB beta-lactamase reporter cells, FRET ratio 460/530, stimulated with 10 pM TNF alpha; activity change, negative = inhibition: at 38.3 µM (top of the series)
# Method in brief: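 NFkB-bla ME-180 cervical carcinoma cells with beta-lactamase reporter under NFkB response element; compounds added, then TNF alpha at 10 pM final (EC50), 5 h at 37 C. LiveBLAzer substrate 2 h, room temperature; emission 460/530 nm at 405 nm excitation.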
# [10] = qHTS Assay for Identification of Small Molecule Agonists for Thrombopoietin (TPO) Signaling Pathway (AID 917); note: potency is the fitted concentration of half-maximal effect
# Method in brief: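 Cell-based luciferase reporter screen. Mouse Ba/F3 line stably expressing human TPO receptor; IL-3 removed overnight before plating. Co-treatment with compound and EC50 TPO (26 pM), 24 hrs at 37 C, then luminescence.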
# [11] = target: Muscarinic acetylcholine receptor M1 (Rattus norvegicus) (UniProt P08482); test: qHTS Assay for Antagonists of Acetylcholine Muscarinic M1 Receptor: Measurement of IP-One Response (AID 944); note: nearly all actives have a fitted effect of over 75% in size
# [12] = Stat Signaling Pathway (AID 446; active = well fitted curve in either direction with a large enough effect, not every such curve was filed as active; inconclusive = small, poorly fitted or top-dose-only effect, or another doubt;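 note: ME-180 cervical cancer cells given 40 pM IL-6 alongside compound; SIE-controlled beta-lactamase reporter measured as 460/530 nm FRET emission ratio; top concentration of the series differs between compounds; % is set by controls: 0 for no effect and ±100 for the full control effect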); details: ME-180 (cervical carcinoma) SIE beta-lactamase reporter, IL-6 stimulated, 5 h; at 7.69 µM (top of the series) unless noted
# Method in brief: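 Overnight-plated ME-180 cells bearing a STAT Inducible Element beta-lactamase reporter; 5 h co-exposure to compound and 40 pM IL-6; values normalized to 300 pM IL-6 and 125 nM JAK inhibitor controls.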
# [13] = target: Pyruvate kinase (Leishmania mexicana) (UniProt Q27686); test: qHTS Validation Assay for Inhibitors of Leishmania Mexicana Pyruvate Kinase (AID 945); note: potency is the fitted concentration of half-maximal effect
# Method in brief: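 Eight-point qHTS titrations; enzyme 0.2 nM LmPYK (E451W mutant); substrates 0.5 mM PEP, 0.1 mM ADP; 7 mM MgCl2; 1 h room temperature; PKLight luminescence normalized to neutral control.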
# [14] = target: Pyruvate kinase PKM (Homo sapiens) (UniProt P14618); test: qHTS Assay for Inhibitors of Human Muscle Pyruvate Kinase (AID 958)
# Method in brief: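 Screening used highly purified human pyruvate kinase M2 under submaximal activity, with PEP at its Km and ADP below Km. After an hour at room temperature, ATP was read by luciferase luminescence.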
# CP215 = test: qHTS profiling for inhibitors of Plasmodium falciparum proliferation (AID 504749); note: nearly all actives have a fitted effect of over 60% in size; note: potency is the fitted concentration of half-maximal effect;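 for activity, negative = inhibition: 0% = DMSO vehicle and full inhibition = artemisinin control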; details: P. falciparum in erythrocytes, SYBR Green DNA, 72 h; series mostly up to 28.7 µM
# Method in brief: (§1)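 Fluorescence of SYBR Green-bound parasite DNA, read at 485/535 nm, served as the growth measure. Infected erythrocytes were cultured with compound 72 h; artemisinin (0.29 uM) and DMSO wells defined the normalization range.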
# CP266 = test: as above; details: P. falciparum in erythrocytes, SYBR Green DNA, 72 h; activity, negative = inhibition: at 28.7 µM (top of the series) unless noted
# Method in brief: as §1
# CP286 = test: as above; details: P. falciparum in erythrocytes, SYBR Green DNA, 72 h; series mostly up to 28.7 µM
# Method in brief: as §1
# CP335 = test: as above; details: P. falciparum in erythrocytes, SYBR Green DNA, 72 h; series mostly up to 28.7 µM
# Method in brief: as §1
# ICS = test: as above; details: P. falciparum in erythrocytes, SYBR Green DNA, 72 h; series mostly up to 28.7 µM
# Method in brief: as §1
# N140 = test: as above; details: P. falciparum in erythrocytes, SYBR Green DNA, 72 h; series mostly up to 28.7 µM
# Method in brief: as §1
# TAB165 = test: as above; details: P. falciparum in erythrocytes, SYBR Green DNA, 72 h; series mostly up to 28.7 µM
# Method in brief: as §1
# [15] = qHTS Assay for Lipid Storage Modulators (AID 1519; calls by dose curve; note: % is set by controls: 0 for no effect and ±100 for the full control effect); details: Drosophila S3 cells, BODIPY lipid droplet/cell ratio, laser cytometry, cells loaded with oleic acid; activity change, negative = inhibition: at 57.5 µM (top of the series) unless noted
# Method in brief: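 Cells seeded at 5,000 per well were treated with compounds over a concentration series and loaded with oleic acid (400 uM, as added). Lipid droplet fluorescence (488 nm excitation, 500-530 nm channel) was read by laser-scanning cytometry and normalized to 20 uM Triacsin C.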
# [16] = target: Ubiquitin carboxyl-terminal hydrolase 1 (Homo sapiens) (UniProt O94782); test: Inhibitors of USP1/UAF1: Pilot qHTS (AID 504865);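 note: rhodamine fluorescence freed from ubiquitin-rhodamine substrate followed over time; potency is the fitted concentration of half-maximal effect; nearly all actives have a fitted effect of over 35% in size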
# Sequence of UniProt O94782 (O94782 whole entry, looked up): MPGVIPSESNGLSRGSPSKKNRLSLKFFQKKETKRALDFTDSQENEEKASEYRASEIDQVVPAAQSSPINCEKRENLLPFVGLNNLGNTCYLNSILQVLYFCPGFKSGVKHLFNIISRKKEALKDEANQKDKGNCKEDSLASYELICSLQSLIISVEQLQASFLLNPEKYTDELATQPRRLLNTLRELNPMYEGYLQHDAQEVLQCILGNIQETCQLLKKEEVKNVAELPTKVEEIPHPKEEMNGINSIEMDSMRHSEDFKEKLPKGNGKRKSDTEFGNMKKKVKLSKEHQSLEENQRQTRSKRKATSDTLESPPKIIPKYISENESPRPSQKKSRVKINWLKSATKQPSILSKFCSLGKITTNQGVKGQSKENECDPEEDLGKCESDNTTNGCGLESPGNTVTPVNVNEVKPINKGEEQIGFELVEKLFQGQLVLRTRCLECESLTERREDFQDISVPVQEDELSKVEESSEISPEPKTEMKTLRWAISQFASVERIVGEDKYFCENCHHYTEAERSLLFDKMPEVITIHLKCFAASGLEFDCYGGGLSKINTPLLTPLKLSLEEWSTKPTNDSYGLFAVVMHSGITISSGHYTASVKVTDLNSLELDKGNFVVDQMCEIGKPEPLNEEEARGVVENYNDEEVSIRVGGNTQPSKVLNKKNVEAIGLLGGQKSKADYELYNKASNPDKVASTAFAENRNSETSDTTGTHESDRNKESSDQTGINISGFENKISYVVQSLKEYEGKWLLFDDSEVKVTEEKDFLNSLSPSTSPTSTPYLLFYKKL
# Method in brief: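 In 50mM HEPES pH 7.8 containing 0.5mM EDTA, 1mM TCEP, 0.1 mg/ml BSA and 0.01% Tween-20, 1nM USP1/UAF1 is exposed to compound for 15 min, then Ub-Rho (150nM final) is added and fluorescence is read over time.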
# [17] = NFAT Signaling Pathway (AID 444; active = well fitted curve in either direction with a large enough effect, not every such curve was filed as active; inconclusive = small, poorly fitted or top-dose-only effect, or another doubt;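 note: carbachol stimulus at about its EC50 of 1 µM final; % is set by controls: 0 for no effect and ±100 for the full control effect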); details: Jurkat NFAT-bla M1, carbachol, beta-lactamase ratio, 5 h; at 7.69 µM (top of the series) unless noted
# Method in brief: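 Jurkat cells carrying an NFAT-driven β-lactamase reporter and co-transfected muscarinic M1 receptor were treated with compound plus carbachol (1 uM final, an EC50 level) for 5 h at 37 °C. CCF4 loading followed for 1 h at RT; 460/530 nm ratio gave %activity.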
# [18] = target: Mitogen-activated protein kinase 10 (Mus musculus) (UniProt Q61831); test: JNK3 AlphaScreen Assay (AID 530; active = well fitted curve in either direction with a large enough effect, not every such curve was filed as active; inconclusive = small, poorly fitted or top-dose-only effect, or another doubt;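 note: kinase came from lysate of stimulated human HepG2 cells; signal reports phosphorylation of biotinylated GST-cJun 1-79 at Ser73 with 10 µM ATP; potency is the fitted concentration of half-maximal effect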); details: JNK3 lysate, c-Jun phosphorylation; activity change, negative = inhibition: at 57.1 µM (top of the series)
# Method in brief: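 Biotinylated GST-cJun(1-79) served as substrate for JNK3 in HepG2 lysates stimulated with IL-1beta and TNF-alpha. ATP was 10 uM final, pH 7.6. Ser73 phosphorylation was quantified by AlphaScreen (680 nm excitation).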
# Tags give direction and shape of the fitted curve.
compound,measurement,setting,value
Clc1ccc2ncnc(NCc3ccc4c(c3)OCO4)c2c1,Potency,[1],inactive
same,Potency,[2],inactive
CN1CC(O)C2=CC(=O)C(=O)C=C21 (configuration not stated),Potency,[1],"inconclusive: 2.67 µM [inhibitor, full curve]"
same,Potency,[2],"inconclusive: 2 µM [inhibitor, full curve]"
same,Potency,[3],active: 2.8 µM
same,Potency,[4],inactive
same,Potency,[5],"inconclusive: 62.2 µM [inhibitor, single point]"
CNc1ncnc2c1ncn2[C@H]1C[C@H](OP(=O)(O)O)[C@H](COP(=O)(O)O)O1,Potency,[6],"inconclusive: 19 µM [inhibitor, single point]"
same,Potency,[1],inactive
same,"activity change, negative = inhibition",[2],inconclusive: -33.4% [inhibitor]
N[C@H](C(=O)O)c1ccc(O)c(C(=O)O)c1,Potency,[7],inconclusive: 135 µM [partial curve]
same,Potency,[1],"inconclusive: 29.9 µM [inhibitor, single point] and inconclusive: 26.7 µM [inhibitor, partial curve]"
same,Potency,[2],"inconclusive: 10 µM [inhibitor, partial curve, poor fit]"
CO[C@]1(C2=NCCN2)COc2ccccc2O1,Potency,[8],inconclusive: 25.1 µM [decreasing]
same,Potency,[6],"inconclusive: 19 µM [inhibitor, partial curve, poor fit]"
same,"activity change, negative = inhibition",[9],inconclusive: -10.9%
same,Potency,[10],"inconclusive: 0.004 µM [inhibitor, full curve, poor fit]"
same,Potency,[11],inactive
same,Potency,[1],inactive
same,Potency,[2],"inconclusive: 11.2 µM [inhibitor, partial curve, poor fit]"
Oc1ccc(/C=C\c2cc(O)cc(O)c2)cc1,"activity, negative = inhibition",[12],inconclusive: -48.6% [inhibitor] [at 38 µM]
same,Potency,[9],inactive
same,Potency,[10],"inconclusive: 12.6 µM [inhibitor, partial curve]"
same,Potency,[13],active: 2.51 µM
same,Potency,[14],active: 3.16 µM
same,Potency,[1],"inconclusive: 21.2 µM [inhibitor, single point]"
same,Potency,[2],inactive
same,Potency,[3],"inconclusive: 62.7 µM [inhibitor, partial curve]"
same,Potency,CP215,inactive
same,Potency,CP266,"inconclusive: 8.09 µM [inhibitor, partial curve, poor fit]"
same,Potency,CP286,"inconclusive: 10 µM [inhibitor, single point]"
same,Potency,CP335,inactive
same,Potency,ICS,"inconclusive: 3.55 µM [inhibitor, single point]"
same,Potency,N140,inactive
same,Potency,TAB165,inactive
Clc1cccc2c1CN(C1=NCCN1)C2,Potency,[6],inactive
same,Potency,[1],"inconclusive: 2.99 µM [inhibitor, full curve, poor fit]"
same,Potency,[2],inactive
CCCc1c(OCCCOc2ccc(OCC(=O)O)cc2)ccc(CC=O)c1O,Potency,[8],active: 31.6 µM
same,"activity change, negative = inhibition",[15],inconclusive: 8.89%
same,Potency,[16],"inconclusive: 56.2 µM [inhibitor, partial curve, poor fit]"
same,Potency,[1],"inconclusive: 26.7 µM [inhibitor, partial curve]"
same,Potency,[2],"inconclusive: 11.2 µM [inhibitor, partial curve, poor fit]"
CCc1cc2c(c(CC)n1)CCC(=O)N2Cc1ccc(-c2ccccc2-c2nn[nH]n2)cc1,Potency,[6],"inconclusive: 15.1 µM [activator, partial curve]"
same,"activity change, negative = inhibition",[15],inconclusive: 11.8%
same,Potency,[16],"inconclusive: 7.94 µM [inhibitor, partial curve, poor fit]"
same,Potency,[1],inactive
same,Potency,[2],inactive
CN(Cc1ccccc1)C(=O)[C@H](Cc1ccc2ccccc2c1)NC(=O)[C@@H]1C[C@@H](O)CN1C(=O)c1cn(C)c2ccccc12,Potency,[1],inactive
same,Potency,[2],"inconclusive: 25.1 µM [inhibitor, single point]"
COc1cc2nc(N3CCN(C(=O)[C@H]4CCCO4)CC3)nc(N)c2cc1OC,Potency,[8],inconclusive: 39.8 µM [decreasing]
same,"activity change, negative = inhibition",[17],inactive: -4.26% [at 38 µM]
same,Potency,[18],"inconclusive: 31.6 µM [inhibitor, single point]"
same,activation (PDE inhibition),[6],inconclusive: 30.5%
same,Potency,[10],inactive
same,Potency,[1],active: 26.7 µM
same,"activity change, negative = inhibition",[2],inconclusive: -30.3% [inhibitor]
C=CC1=C(C)C2=Cc3c(C=C)c(C)c4[n]3[Sn+2][n]3c(c(C)c(CCC(=O)O)c3=CC3=NC(=C4)C(C)=C3CCC(=O)O)=CC1=N2,Potency,[18],active: 1 µM [activator]
same,Potency,[6],"inconclusive: 15.1 µM [inhibitor, single point]"
same,Potency,[16],"inconclusive: 63.1 µM [inhibitor, partial curve, poor fit]"
same,Potency,[1],"inconclusive: 23.8 µM [inhibitor, partial curve, poor fit]"
same,Potency,[2],"inconclusive: 3.16 µM [inhibitor, full curve, poor fit]"
